# Hit rate of the full screen: of about 150,000 compounds, about 540 (0.36%) showed an effect of 50% or more. The list shows a part of the results.
# System: Plasmodium falciparum
# Assay: Primary screen in NF54 nanoGlo assay, in single point, at 2uM, 72h; a lower Z score goes with more inhibition
# Type: functional, Erythrocyte
# Settings: timepoint 72 hour
Structure (SMILES),% Inhibition [%],Z score
COc1ccc(OC)c(-c2cnn3cc(-c4ccncc4)cnc23)c1,-8,1.52
CCCN1CCC[C@H]1CNC(=O)C#Cc1ccc2c(c1)OCO2,-1,0.14
CCOC(=O)c1nnn(-c2nc(N3CCCCC3)nc(N3CCOCC3)n2)c1C,-16,2.89
COCc1n[nH]c([C@@H]2CCCCN2C(=O)c2cc(F)c(F)cc2Cl)n1,-8,0.82
CC(C)(C)c1nc(NCc2ccncc2)no1,12,-1.18
CN(C)S(=O)(=O)NCCn1nc(-c2ccccc2)n(C2CC2)c1=O,-7,1.41
CN(C)C(=O)c1ccc2c(c1)N(CC(=O)N1CCN(Cc3ccccc3)CC1)C(=O)CO2,-8,1.11
Cn1cc(CCNC(=O)c2cn(CC(N)=O)nn2)c2ccc(Cl)cc21,4,-0.48
COC(=O)C1C2CCCC2CN1C(=O)c1cn[nH]c1 (stereo not given),-11,1.16
Cc1cc(C(=O)Nc2nnc(Cc3ccc(Cl)s3)o2)on1,-3,0.61
CN(CC(=O)NCC1(O)CCC(C(C)(C)C)CC1)S(C)(=O)=O (stereo not given),0,0.05
O=C(Nc1ncccc1O)C1CCCC1,-12,1.16
O=S1(=O)CCC(NCC(O)c2ccco2)c2cc(Cl)ccc21 (stereo not given),-12,1.47
Cc1ccsc1CN1CCC[C@@](O)(CO)CC1,-5,0.89
C[C@H]1CN(C(=O)C(=O)Nc2ccc(OC3CCCC3)c(Cl)c2)CC(C)(C)O1,4,-0.57
NC(=O)CC1CC(NC(=O)Nc2ccnc(-c3ccccc3)c2)C1 (stereo not given),-1,0.15
C[C@@H](Cc1ccco1)N1CC(O)=C(c2nc3ccccc3[nH]2)C1=N,4,-0.65
Cc1cc([C@]2(C)NC(=O)N(Cc3ncc(C(C)(C)C)o3)C2=O)c(C)o1,-3,0.52
CC(C)CN1CCC(NC2CCN(C)CC2)CC1,0,-0.04
COc1cccc(CN[C@H]2[C@H](O)[C@@H](n3ccnc3C)[C@@H]3OC[C@H]2O3)c1,29,-3.3
Cc1ccc(S(=O)(=O)N2CCO[C@H](c3ccccc3)C2)s1,-5,0.78
COC[C@@]1(NC(=O)c2cccc(C(F)(F)F)n2)COc2ccccc2C1,-4,0.71

Structure (SMILES),% Inhibition [%],Z score
CCC(=O)N(Cc1cccc(F)c1)c1ccc(CC(=O)NCCN2CCCC2)cc1,-2,0.24
O=C(OCc1ccccc1)N1C[C@H]2CC[C@@H](C1)N(Cc1cscn1)C2=O,10,-1.41
CN1C[C@@H](Cn2cnc(-c3ccccc3)c2-c2cccc3cccnc23)CC1=O,-11,1.52
Cc1noc(C)c1C(=O)Nc1cccc2cccnc12,-11,1.42
C[C@H]1CN(C2CCN(C(=O)Cn3ccc4ccccc43)CC2)CCO1,-12,2.39
O=C1N[C@H]2CCC[C@@H]1CN(CCN1CCN(c3ccccc3)CC1)C2,6,-0.83
O=C(NCC1CCN(c2cc(O)ncn2)CC1)c1ccoc1,4,-0.74
CN(CCc1ccncc1)CC(=O)Nc1ccc(Br)cc1,-4,0.59
C[C@@H](CCN(C)c1nccnc1N(C)C)N1CCCC1,-2,0.39
O=c1c(NC2CCOC3(CCOC3)C2)nccn1C1CC1 (stereo not given),39,-3.54
Cc1cc(NC(=O)C(C)NC2CCCN(Cc3noc(C)n3)C2)no1 (stereo not given),2,-0.35
COc1ccc(C(=O)N2CCC(F)(C(=O)NC3CC3)CC2)cc1F,-17,2.16
O=C(CN(Cc1ccccc1)C(=O)c1ccc(F)c(Cl)c1)N1CCNCC1,-7,0.68
Cc1nc2ccc(NC(=O)C3C4C=CC(C4)C3C(=O)O)cc2s1 (stereo not given),7,-1.15
CC(C)C1=NO[C@H](C(=O)N(C)Cc2cccc(CN(C)C)c2)C1,17,-2.19
Cc1ncc(CN2CCC(NC(=O)c3cccnc3O)C(C)C2)s1 (stereo not given),-10,1.53
O=C(Cc1cccnc1)N1CCN(c2ccc(Cl)c(Cl)c2)CC1,-9,1.08
Nc1n[nH]c2ncnc(N3CCc4ccccc4C3)c12,-15,1.97
Cc1ccc(C)c(N2C[C@@H](c3nc(C4CC4)no3)CC2=O)c1,11,-1.21
CCOc1ccc(NC(=O)C2[C@@H]3C=C[C@]4(O3)C(C(=O)NC3CCCCC3C)N(Cc3ccc(F)cc3)C(=O)[C@H]24)cc1 (stereo not given in full),-6,0.94
CO[C@H]1C[C@H]2CC[C@@H](C1)N2c1nc(-c2ccccc2)no1,-1,0.13
c1ccc(C(CN2CCc3nncn3CC2)c2ccccc2)cc1,-6,0.77

Structure (SMILES),% Inhibition [%],Z score
O=C(CC[C@H]1CCCO1)Nc1ccc2c(c1)OCO2,-1,0.15
Cn1cc(S(=O)(=O)Nc2cc3c(cc2C(=O)O)CCCC3)cn1,-2,0.16
Cc1ccccc1[C@]1(O)CCN(Cc2cn(CC(N)=O)c3ccccc23)C1,-7,0.87
COc1ccc(-c2cnc3ncnn3c2N2CCCN(S(=O)(=O)c3ccccc3C(F)(F)F)CC2)cc1,-12,1.27
O=C(CN1CCC[C@@H]1CO)NCC1(N2CCOCC2)CCCCC1,-5,0.96
CC(O)(CNC1CC=C(c2ccc(F)cc2)CC1)c1ccc(F)cc1 (stereo not given),5,-0.52
CCc1nc(CCc2ccc(F)c(F)c2)n(CC(=O)O)n1,5,-0.59
CN1CC2(C[C@H]1c1noc(-c3ccccn3)n1)CN(C(=O)C1CCCCC1)C2,-19,2.26
CO[C@@]12CC[C@@H](OCCO)C[C@@H]1N(c1cc(C)nc(N)n1)CC2,-1,0.08
Cc1cccc2[nH]cc(-c3csc(-c4cnccn4)n3)c12,3,-0.51
CC[C@H](O)C(F)(F)C(=O)NCc1ccc(O)c(OC)c1,-13,2.11
O=C(O)c1ccc(CN2CCC(c3ncc(Cl)cn3)CC2)cc1,-14,1.61
O=C(NCCOC[C@H]1CCCO1)Nc1cccc(F)c1,9,-0.79
O=S(=O)(Cl)c1c[nH]c(C(F)(F)F)c1,-13,1.54
COC(=O)CC(C)CC(C)NC(c1nncn1C)C(C)C (stereo not given),2,-0.34
O=C(O)CCCN(Cc1ccccc1)C(=O)Cc1csc(Cc2ccc(F)cc2)n1,-2,0.3
Cn1cc(NC(=O)c2cn(-c3cc(F)c(F)c(F)c3)c(=O)c3ccccc23)cn1,-3,0.41
N#Cc1ccc(S(=O)(=O)N2CCc3n[nH]c(=O)n3CC2)cc1,-5,0.61
C=CCN(Cc1ncccc1C(=O)O)C1CCCC1,-5,0.96
COCCN1CC(=O)N[C@H]2CN(c3nc(C)nc4c3cnn4C)C[C@@H]2OCc2cccc(c2)Oc2cc(ccc2OC)CCC1=O,12,-1.64
O=C(c1ccc2[nH]nnc2c1)N1CC[C@@](F)(c2cc(F)cc(F)c2)C1,-15,1.81
Cc1nc(CN(C)[C@H]2CC[C@H](O)CC2)c(C)o1,-7,0.63

Structure (SMILES),% Inhibition [%],Z score
O=C(O)C1CCC(=O)N(C2CC2)C1c1ccccc1 (stereo not given),40,-5.22
O=C(CCC1CCOC1)NC1CCCCC1CO (stereo not given),-6,0.57
Cc1noc(C)c1NC(=O)CCCCOc1cccc(C#N)c1,-3,0.45
Cc1ccsc1[C@@H](O)CNS(=O)(=O)c1ccc(Cl)s1,-19,3.28
Cc1ccc(CN(C)CC(=O)NCc2ccc3c(c2)OCO3)s1,-7,0.83
Cc1ccc(C(=O)N2CCC(c3ccccc3)CC2)c(=O)[nH]1,-1,0.12
Cc1ccccc1Cn1nc(C2CCOCC2)nc1C1(CO)CC1,-11,1.23
OCCNc1nc2ccccc2n1Cc1coc(-c2cccs2)n1,3,-0.31
C[C@H](NC(=O)N[C@H]1CC[C@H](CO)CC1)c1cc2ccccc2o1,-13,1.72
CC(C)c1ccc(C2C(S(=O)(=O)NCc3ccco3)CON2C)cc1 (stereo not given),-7,0.68
Cc1cc(O)c(C(=O)N[C@H]2CCc3ccccc32)cn1,-8,0.83
Nc1c(F)cc(Cl)cc1C(=O)NCCN1CCS(=O)(=O)CC1,7,-0.9
Cc1cc(CNC(=O)N[C@@]2(c3ccccc3)CC2(C)C)n(C)n1,0,0
CC(C)C(=O)N1CCCN(c2ccnc(Cc3ccc(F)cc3)n2)CC1,-8,0.83
O=C(NCCc1cccs1)c1cc(Cl)sc1Cl,1,-0.11
CN(C(=O)CCCc1ccc2[nH]c(=O)[nH]c2c1)C1C2CCOC2C1(C)C (stereo not given),2,-0.2
CC(=O)c1cccc(NC(=O)c2nonc2C)c1,36,-4.66
COCC(=O)N1CCC(C(=O)N2CCC(O)(Cc3ccccc3)CC2)CC1,6,-1.12
Cc1n[nH]c(C)c1CCCNC(=O)[C@@H]1CCCN1Cc1ccccc1,8,-1.29

# — ChEMBL document CHEMBL4888484, “Replenishing the malaria drug discovery pipeline: Screening and hit evaluation of the MMV Hit Generation Library 1 (HGL1) against asexual blood stage Plasmodium falciparum ,using a nano luciferase reporter read-out” (2022)
